Reference: the supplement of paper PMC4466236
Over roughly 33,000 sequences, “E-score (dimensionless, -0.5 to 0.5)” has its median near -0.058; the highest 2% begin near 0.35. The list shows a part of the results.

Each sequence was assayed on MvaT (assay: PBM 8-mer E-score (mean of HK and ME arrays) (E-score (dimensionless, -0.5 to 0.5)); higher = stronger relative binding preference; most listed sequences are background and not binding sites).
Method in brief: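 Reported values are rank-based E-scores, taken as the mean of two universal arrays and parsed with a custom script. Each 8-mer score falls between -0.5 and 0.5. The arrays, ME and HK, were double-stranded 60-mers with a constant 25-mer primer region and a variable 35-mer region covering all 8-mers. They were probed, by an earlier protocol, with full-length P. aeruginosa MvaT carrying an N-terminal glutathione S-transferase fusion.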

Row | Sequence | PBM 8-mer E-score
1 | ACGGCGAC | -0.219
2 | AAAGAGAC | -0.0566
3 | ATGCATCG | 0.0128
4 | AGTGTGAA | 0.204
5 | AGCGTCCG | -0.21
6 | GAATGTTA | 0.275
7 | GACAACTA | 0.219
8 | ATCGTAGC | -0.068
9 | ACTCCGGC | -0.254
10 | GATGCTAA | 0.0177
11 | AAGCATAA | 0.0984
12 | AGATAAAG | 0.0927
13 | ACAATCCA | 0.0225
14 | AACTTAGC | 0.247
15 | ATTTAAAT | 0.474
16 | GGATTGCC | -0.0996
17 | ATGACTCG | -0.0983
18 | ACACGAGC | -0.154
19 | CAATTCAA | 0.19
20 | ACCTTAAT | 0.262
21 | AATCGGGC | 0.00445
22 | CAAGCATG | -0.192
23 | CATTCGCG | -0.0993
24 | CGACGGGC | -0.139
25 | CTAACGGC | -0.153

Row | Sequence | PBM 8-mer E-score
26 | ACATATAT | 0.47
27 | ACGACGGC | -0.188
28 | CACTACGG | -0.0812
29 | GTCAGTGA | -0.0379
30 | TCCGATCA | -0.265
31 | AGAGAAAA | 0.0443
32 | ATTGGACG | -0.0897
33 | GTATATAA | 0.401
34 | AGTGACGG | -0.166
35 | ACTTTGCC | 0.134
36 | CCCTTTGC | -0.196
37 | ATTTCGGC | 0.139
38 | AGCCAAGA | -0.0913
39 | AGTGTTTA | 0.22
40 | CAGCTGCC | -0.182
41 | TAACACGA | 0.0945
42 | AGTCCTAA | -0.032
43 | GGATGACA | -0.0203
44 | ATCCAAGG | -0.209
45 | CTTAGTTA | 0.273
46 | ACAGTCGG | -0.075
47 | ACACACGT | -0.119
48 | AGCAAAAA | 0.0929
49 | TGGACTAA | 0.0684
50 | TCACGGCA | -0.00811

Row | Sequence | PBM 8-mer E-score
51 | CCGAGGCG | -0.245
52 | ACTATCGG | 0.111
53 | CAATGTCA | 0.137
54 | CTTCCGTA | -0.0849
55 | ACGTAATC | -0.0211
56 | AAGGTCAT | -0.0555
57 | CGGTGCCC | -0.305
58 | AATTGAGT | 0.191
59 | CTGTAACA | 0.19
60 | AAAAAAGT | 0.25
61 | ACTCTGTG | -0.0869
62 | CCACATCA | 0.0469
63 | AACCCCGG | -0.199
64 | ATGGATTC | -0.07
65 | ACCCCTGA | -0.27
66 | GCAATGAA | 0.0865
67 | GTGATAGA | -0.0425
68 | AGTTGGCA | -0.0412
69 | ACTTCACT | 0.0283
70 | ATTTAAAG | 0.354
71 | AATAAGGA | 0.19
72 | GCGGAAGC | -0.179
73 | CCGCGATC | -0.215
74 | CTGGGACC | -0.183
75 | GGCTTAGA | -0.0925

Row | Sequence | PBM 8-mer E-score
76 | AACTCCAG | -0.14
77 | CATTCCAC | -0.0747
78 | CTGCTCAA | -0.117
79 | AACCATAG | 0.0919
80 | ACTGTGAC | 0.0208
81 | GGCAAGCA | -0.272
82 | CGTACGGA | -0.148
83 | ACTATACC | 0.179
84 | CCTAGAGG | -0.191
85 | GTTGACCA | -0.00885
86 | AAGTTACT | 0.339
87 | ATAAGCAG | 0.136
88 | ACCCGGGC | -0.294
89 | GCACGTCC | -0.168
90 | ATCCTCGC | -0.157
91 | CGCGCGCA | 0.0198
92 | CACCCCGA | -0.172
93 | TGTTCTAA | 0.202
94 | AACGGGAC | -0.0138
95 | ATTAACTC | 0.249
96 | GCCGTGAA | -0.104
97 | TGGCGCAA | 0.0575
98 | AGAGCACC | -0.221
99 | AGTCGACG | -0.209
100 | AGGGTAGC | -0.296

Row | Sequence | PBM 8-mer E-score
101 | GGGTGAAA | 0.0705
102 | AGATTAAG | 0.175
103 | GGTGTCTA | -0.123
104 | GAGCGAAC | -0.195
105 | CGGTATGA | -0.228
106 | GAGCGTCA | -0.289
107 | CATGCGTC | -0.0715
108 | ATATCTCG | 0.229
109 | AGCCGAGC | -0.341
110 | AATGAAAG | 0.238
111 | AAGAGTCA | -0.028
112 | AGCGAGTG | -0.0174
113 | GTGTGCTA | -0.0217
114 | ATAACACC | 0.176
115 | TCAATACA | 0.259
116 | AAGTGTTA | 0.243
117 | TACTACAA | 0.266
118 | AGACAGCA | -0.0818
119 | CATACTCG | 0.00716
120 | ACCGAAAG | -0.133
121 | AATAAACC | 0.289
122 | ATTAACGC | 0.0937
123 | TCGCCAGA | -0.0571
124 | AGCGGACA | -0.107
125 | ACATAAAC | 0.283

Row | Sequence | PBM 8-mer E-score
126 | TCACCGAA | -0.14
127 | AATTAGCA | 0.192
128 | CTACTCGA | -0.0662
129 | AAAAAAGA | 0.159
130 | ACGTGATA | 0.132
131 | AATCCACG | -0.0564
132 | ATGAAGTC | 0.0081
133 | TAAGCATA | 0.161
134 | CTAGTACC | -0.108
135 | GTAGGATA | 0.0849
136 | ACGAGAAG | -0.0709
137 | CGCCCGAC | -0.326
138 | AATATAAC | 0.42
139 | AAATGGTT | 0.139
140 | CAGTCCAA | -0.129
141 | ACACGAGA | -0.0311
142 | ATGGGCCA | 0.0484
143 | AGACTAGA | 0.16
144 | TGTTGTAA | 0.254
145 | TCACAGGA | -0.0498
146 | CCATCTTC | -0.0489
147 | TACATATA | 0.402
148 | GCGGAACC | -0.335
149 | ACGCTACA | -0.0882
150 | GGTCCGAA | -0.0643

Row | Sequence | PBM 8-mer E-score
151 | ACACCAAC | -0.0282
152 | CACACCAC | -0.0201
153 | AATCCTTC | -0.0742
154 | TACGTTCA | 0.013
155 | ATGATGCG | -0.0483
156 | CCCGAGTC | -0.173
157 | CCGCGCCG | -0.108
158 | CAACGTGA | -0.113
159 | ATTGATCG | 0.046
160 | ATGGCAGA | -0.0673
161 | GTTTGTTA | 0.25
162 | AAACTGCG | 0.0339
163 | ATGCGCGG | -0.207
164 | CAGGAACA | -0.14
165 | CTAGACAA | 0.0305
166 | CTAGTCGC | -0.235
167 | AGGGGGGC | -0.356
168 | AACTAGCC | 0.0638
169 | GAAGCGGC | -0.223
170 | GACGTGAA | 0.0482
171 | ACAGCAAG | -0.0242
172 | ACGGCCCC | -0.246
